In patent publication US12037378B2, “Variant CD58 domains and uses thereof” (NOVARTIS AG, priority 2019, dated 2024):
“Also recorded” adds a separate entry of the source.

How the values were obtained:
Assay type in all cases: cell-based, human
[1] = system: Karpas422-luc cells; experiment: RTCC assay with BBMs, Karpas422-luc target cells; details: expanded T cells, E:T 3:1, 24 h
Procedure: (§1) A RTCC assay with the BBMs of Example 1 was performed to measure the ability of the BBMs to elicit RTCC against CD19+ Nalm6-luc and Karpas422-luc cells. Nalm-6 is a human B cell precursor leukemia cell line and Karpas422 is a human B-cell non-hodgkin lymphoma cell line. Briefly, Nalm6 and Karpas422 cells engineered to express the firefly luciferase reporter gene were cultured in RPM11640 culture media with 10% fetal bovine serum (FBS). 10,000 target cells with serial diluted BBMs or gH isotype antibody control (agH-CD3hi) were seeded on 384-well flat-bottom microtiter plate. Primary human T cells were isolated from cryopreserved peripheral blood mononuclear cells (PBMCs) and expanded using anti-CD3 and anti-CD28 dynabeads (Thermo fisher, catalog #11131D) and subsequently cryopreserved. Expanded T cells were thawed and aliquoted to the plate to achieve an effector cell (i.e., T cell) to target cell (i.e., cancer cell) ratio (E:T ratio) of 3:1. Plates were incubated in a 37° C. incubator with 5% CO2 overnight. Following the co-incubation, Bright Glo (Promega, catalog #E2620) was added to all wells and the luminescence signal was subsequently measured on an Envision (Perkin Elmer). Target cells with Bright Glo served as maximal signal. The percent RTCC of target cells was calculated using the following formula: [100−(sample/maximal signal)*100%].

[2] = system: Nalm6-luc cells; experiment: RTCC assay with BBMs, Nalm6-luc target cells; details: expanded T cells, E:T 3:1, 24 h
Procedure: as §1

[3] = system: CD3+ T cells; experiment: T cell proliferation upon co-culture with CD19 expressing target cells (Cell Trace Violet); details: co-culture with Karpas422 or Nalm-6, E:T 1:1, 96 hrs
Procedure: The BBMs described in Example 1, containing the variable regions of NEG258 and NEG218, were evaluated for their ability to induce T cell proliferation upon co-culture with CD19 expressing target cells. Briefly, Karpas422 and Nalm-6 target cells stably expressing firefly luciferase were irradiated on the day of the assay and plated at a density of 60,000 cells per well in a Costar 96 well plate (Corning, Cat #3904) in T Cell Media (TCM) [RPMI-1640 (ThermoFisher Scientific, Cat #11875-085), 10% FBS (Seradigm, Cat #1500-500), 1% L-Glutamine (Thermo Fisher Scientific, Cat #25830-081), 1% Non Essential Amino Acids (Thermo Fisher Scientific, Cat #11140-050), 1% Pen/Strep (Thermo Fisher Scientific, Cat #15070063), 1% HEPES (Thermo Fisher Scientific, Cat #15630080), Sodium Pyruvate (Thermo Fisher Scientific, Cat #11360-070), 0.1% Beta-mercaptoethanol (Thermo Fisher Scientific, Cat #21985-023)]. Peripheral blood mononuclear cells (PBMCs) previously isolated from Leukopak donors (Hemacare) and cryopreserved were thawed and Pan T cells were isolated by negative selection using the Pan T cell Isolation Kit, human [Miltenyi Biotec, Cat #130-096-535] following the manufacturer's protocol. Isolated T cells were labelled with 5 μM Cell Trace Violet (CTV) (Thermo Fisher Scientific, Cat #C34557) following the manufacturer's protocol and 60,000 CTV labeled T cells were co-cultured with 60,000 target cells to achieve an E:T ratio of 1:1. A dilution series of the NEG258- and NEG218-based BBMs and control binding molecules (agH-CD3hi) ranging from 16 μM-10,000 μM was added to cells and the plates were incubated in a 5% CO2, 37° C. incubator for 96 hrs. […] The samples were then run on BD LSR Fortessa and analyzed using FlowJo to determine % proliferated CD3+ T cells based on CD3 staining and dilution of Cell Trace Violet dye.

Molecule	RTCC activity against Karpas422-luc cells [1]	RTCC activity against Nalm6-luc cells [2]	T cell proliferation [3]	T cell proliferation, relative potency [3]
NEG258-based BBM: knob-into-hole IgG1 bispecific with NEG258-based anti-CD19 Fab and CD3hi anti-CD3 scFv (antibody) heavy: QVQLVQSGAEVKKPGASVKVSCKASGYTFTTYWIQWVRQAPGQRLEWMGAVYPGDADTRYTQKFQGRVTLTADRSASTAYMELSSLRSEDTAVYYCGRDAGLEYYALDYWGQGTLVTVSSASTKGPSVFPLAPSSKSTSGGTAALGCLVKDYFPEPVTVSWNSGALTSGVHTFPAVLQSSGLYSLSSVVTVPSSSLGTQTYICNVNHKPSNTKVDKRVEPKSCDKTHTCPPCPAPELLGGPSVFLFPPKPKDTLMISRTPEVTCVVVAVSHEDPEVKFNWYVDGVEVHNAKTKPREEQYASTYRVVSVLTVLHQDWLNGKEYKCKVSNKALAAPIEKTISKAKGQPREPQVCTLPPSREEMTKNQVSLSCAVKGFYPSDIAVEWESNGQPENNYKTTPPVLDSDGSFFLVSKLTVDKSRWQQGNVFSCSVMHEALHNHYTQKSLSLSPGK light: EIVMTQSPATLSVSPGERATLSCRASQDVGTAVAWYQQKPGQAPRLLIYWASTRHTGIPARFSGSGSGTEFTLTISSLQSEDFAVYFCQQYANFPLYTFGQGTKLEIKRTVAAPSVFIFPPSDEQLKSGTASVVCLLNNFYPREAKVQWKVDNALQSGNSQESVTEQDSKDSTYSLSSTLTLSKADYEKHKVYACEVTHQGLSSPVTKSFNRGEC EVQLVESGGGLVQPGGSLKLSCAASGFTFNTYAMNWVRQASGKGLEWVGRIRSKYNNYATYYADSVKDRFTISRDDSKSTLYLQMNSLKTEDTAVYYCVRHGNFGNSYVSWFAYWGQGTLVTVSSGGGGSGGGGSGGGGSGGGGSQAVVTQEPSLTVSPGGTVTLTCRSSTGAVTTSNYANWVQQKPGQAPRGLIGGTNKRAPWTPARFSGSLLGDKAALTLSGAQPEDEAEYFCALWYSNLWVFGGGTKLTVLGGGGSDKTHTCPPCPAPELLGGPSVFLFPPKPKDTLMISRTPEVTCVVVAVSHEDPEVKFNWYVDGVEVHNAKTKPREEQYASTYRVVSVLTVLHQDWLNGKEYKCKVSNKALAAPIEKTISKAKGQPREPQVYTLPPCREEMTKNQVSLWCLVKGFYPSDIAVEWESNGQPENNYKTTPPVLDSDGSFFLYSKLTVDKSRWQQGNVFSCSVMHEALHNRYTQKSLSLSPGK	mediated RTCC activity	mediated RTCC activity	induced proliferation of T cells; also recorded: induced T cell proliferation	more potent activity than the NEG218-based BBM
NEG218-based BBM: knob-into-hole IgG1 bispecific with NEG218-based anti-CD19 Fab and CD3hi anti-CD3 scFv (antibody) heavy: EVQLVQSGAEVKKPGESLKISCKASGYSFTNYWMNWVRQMPGKGLEWMGMIHPSDSEIRLNQKFQGQVTLSVDKSIGTAYMQWSSLKASDTAMYYCSRWYYLSSPMDYWGQGTTVTVSSASTKGPSVFPLAPSSKSTSGGTAALGCLVKDYFPEPVTVSWNSGALTSGVHTFPAVLQSSGLYSLSSVVTVPSSSLGTQTYICNVNHKPSNTKVDKRVEPKSCDKTHTCPPCPAPELLGGPSVFLFPPKPKDTLMISRTPEVTCVVVAVSHEDPEVKFNWYVDGVEVHNAKTKPREEQYASTYRVVSVLTVLHQDWLNGKEYKCKVSNKALAAPIEKTISKAKGQPREPQVCTLPPSREEMTKNQVSLSCAVKGFYPSDIAVEWESNGQPENNYKTTPPVLDSDGSFFLVSKLTVDKSRWQQGNVFSCSVMHEALHNHYTQKSLSLSPGK light: EIVMTQSPATLSVSPGERATLSCRASQDVGTAVAWYQQKPGQAPRLLIYWASTRHTGIPARFSGSGSGTEFTLTISSLQSEDFAVYFCQQYSSYPYTFGQGTKLEIKRTVAAPSVFIFPPSDEQLKSGTASVVCLLNNFYPREAKVQWKVDNALQSGNSQESVTEQDSKDSTYSLSSTLTLSKADYEKHKVYACEVTHQGLSSPVTKSFNRGEC EVQLVESGGGLVQPGGSLKLSCAASGFTFNTYAMNWVRQASGKGLEWVGRIRSKYNNYATYYADSVKDRFTISRDDSKSTLYLQMNSLKTEDTAVYYCVRHGNFGNSYVSWFAYWGQGTLVTVSSGGGGSGGGGSGGGGSGGGGSQAVVTQEPSLTVSPGGTVTLTCRSSTGAVTTSNYANWVQQKPGQAPRGLIGGTNKRAPWTPARFSGSLLGDKAALTLSGAQPEDEAEYFCALWYSNLWVFGGGTKLTVLGGGGSDKTHTCPPCPAPELLGGPSVFLFPPKPKDTLMISRTPEVTCVVVAVSHEDPEVKFNWYVDGVEVHNAKTKPREEQYASTYRVVSVLTVLHQDWLNGKEYKCKVSNKALAAPIEKTISKAKGQPREPQVYTLPPCREEMTKNQVSLWCLVKGFYPSDIAVEWESNGQPENNYKTTPPVLDSDGSFFLYSKLTVDKSRWQQGNVFSCSVMHEALHNRYTQKSLSLSPGK	mediated RTCC activity	mediated RTCC activity	induced proliferation of T cells; also recorded: induced T cell proliferation	
